# Measured values taken from PubChem BioAssay AID1460 (National Center for Advancing Translational Sciences (NCATS), 2008).
# In all, about 270,000 compounds went through this assay and about 5,800 (2.1%) were called active. Inconclusive means that the source gave no clear call. Such entries were picked first, then a sample of the others. Calls follow the shape of the dose curve; as a rule, active = well fitted inhibition curve with a large enough effect; inconclusive = small, poorly fitted or top-dose-only effect; inactive = flat fitted curve, though single readings scatter. Where the call is inconclusive, the potency comes from a doubtful curve fit.
# Biological target: Microtubule-associated protein tau (Homo sapiens) (UniProt P10636)
# Sequence of UniProt P10636 (P10636 whole entry, looked up): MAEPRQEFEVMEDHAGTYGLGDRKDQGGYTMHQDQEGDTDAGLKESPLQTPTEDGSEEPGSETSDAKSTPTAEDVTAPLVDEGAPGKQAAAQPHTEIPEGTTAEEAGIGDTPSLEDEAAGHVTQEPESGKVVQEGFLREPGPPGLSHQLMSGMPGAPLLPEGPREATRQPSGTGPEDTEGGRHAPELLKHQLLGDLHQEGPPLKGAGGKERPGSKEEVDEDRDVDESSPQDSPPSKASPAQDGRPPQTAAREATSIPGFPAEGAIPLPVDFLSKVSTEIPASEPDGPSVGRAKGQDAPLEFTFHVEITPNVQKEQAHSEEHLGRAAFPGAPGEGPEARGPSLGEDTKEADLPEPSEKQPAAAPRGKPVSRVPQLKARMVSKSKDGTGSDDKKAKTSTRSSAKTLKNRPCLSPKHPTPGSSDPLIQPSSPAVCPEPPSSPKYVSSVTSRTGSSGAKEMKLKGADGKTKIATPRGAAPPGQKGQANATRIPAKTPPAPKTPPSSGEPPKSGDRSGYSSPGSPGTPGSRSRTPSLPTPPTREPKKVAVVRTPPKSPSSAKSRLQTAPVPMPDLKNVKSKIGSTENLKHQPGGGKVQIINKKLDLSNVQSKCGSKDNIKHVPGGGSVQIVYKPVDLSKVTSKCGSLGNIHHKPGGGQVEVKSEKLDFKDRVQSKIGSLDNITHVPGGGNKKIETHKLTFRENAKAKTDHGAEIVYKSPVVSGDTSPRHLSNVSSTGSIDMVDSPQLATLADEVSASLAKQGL
# Assay: qHTS for Inhibitors of Tau Fibril Formation, Thioflavin T Binding; also: nearly all actives have a fitted effect of over 55% in size
# Conditions: recombinant tau K18 P301L, heparin-induced fibrillization, ThT fluorescence; series mostly up to 57.4 µM; activity, negative = inhibition: at the top concentration
# In short: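 Using a mix of unlabeled (15 uM) and Alexa 594-labeled (0.24 uM) tau K18 P301L, heparin-triggered fibrillization over 6 hr at 37 C was scored by ThT fluorescence.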
# % is scaled to controls: 0 for no effect and ±100 for the full control effect; potency is read from the fitted curve at half-maximal effect; tags tell the direction and shape of the fitted curve.
SMILES,Potency,"activity, negative = inhibition"
CCc1nc2ccc(C(=O)N3CCN(c4cc(Cl)ccc4C)CC3)cc2nc1CC,"inconclusive: 25.1 µM [inhibitor, single point]",
CCc1cc(C(C)=O)c(O)cc1OCCCCCC(C)(C)c1nn[nH]n1,,inactive: -16.1%
Nc1nonc1OCCN1CCN(c2ccc([N+](=O)[O-])c3cccnc23)CC1,active: 17.8 µM,
CC(C)(C)C(=O)Nc1ccc(-c2nc3ccc(NC(=O)C(C)(C)C)cc3[nH]2)cc1,"inconclusive: 3.55 µM [inhibitor, full curve, poor fit]",
Cc1noc(C)c1CSCC(=O)Nc1nc2ccc(Oc3ccccc3)cc2s1,"inconclusive: 28.2 µM [inhibitor, partial curve]",
CN(CCc1ccccn1)C(=O)CCC1CCCN(C(=O)c2n[nH]c3c2CCCC3)C1 (centres undefined),,inactive: -8.56%
CCC12CCCN3CCC4(C(=C(C(=O)OC)C1)Nc1ccccc14)C32 (centres undefined),,inactive: -8.95%
O=C(NC(=S)Nc1ccccn1)c1ccc([N+](=O)[O-])cc1,"inconclusive: 12.6 µM [inhibitor, partial curve]",
Cc1ccc2c(=O)cc(C(=O)Nc3ccc(S(=O)(=O)N(C)c4ccccc4)cc3)oc2c1C,,inactive: -15.3%
COC(=O)/C(=C/c1ccco1)NC(=O)c1ccco1,"inconclusive: 15.8 µM [inhibitor, single point]",
O=C(Cn1ncn2c(cc3sccc32)c1=O)NCCc1ccccc1,,inactive: -4.44%
CCOC(=O)C1(CCOC)CCN(Cc2ccc(C(=O)OC)cc2)CC1,"inconclusive: 2.24 µM [inhibitor, full curve]",
CCOC(=O)c1c(C)[nH]c(C=C2C(=O)CCCC2=O)c1O,"inconclusive: 20 µM [inhibitor, single point]",
COc1ccc(CCNC(=O)CCc2c(C)c3cc4c(C)c(C)oc4cc3oc2=O)cc1OC,"inconclusive: 3.16 µM [inhibitor, full curve, poor fit]",
O=C(c1ccccc1)c1ccc(N2CCCC2)cc1,"inconclusive: 17.8 µM [inhibitor, partial curve]",
O=c1cc(-c2ccccc2O)oc2ccc3ccccc3c12,"inconclusive: 5.01 µM [inhibitor, partial curve]",
Cc1cc(N2CCN(C)CC2)nc2ccc(NC(=S)NCc3cccs3)cc12,"inconclusive: 20 µM [inhibitor, single point]",
CCC(C)Nc1nc(N)c([N+](=O)[O-])c(Nc2cc(OC)ccc2OC)n1 (centres undefined),active: 15.8 µM,
COc1cc(Nc2ccc(C)cc2)c([N+](=O)[O-])nc1[N+](=O)[O-],"inconclusive: 15.8 µM [inhibitor, partial curve]",
Cc1oc(-c2ccc(Cl)cc2)nc1CN1CCCC(C(=O)NCCc2ccc(Cl)cc2)C1 (centres undefined),"inconclusive: 28.2 µM [inhibitor, partial curve]",
CCOC(=O)C1=C(N)Oc2cc(C)n(CCc3ccc(OC)c(OC)c3)c(=O)c2C1c1cccnc1 (centres undefined),,inactive: -3.48%
COC(=O)C1=C(C)N(Cc2ccc(OC)cc2)C(=O)C1,,inactive: -22%
O=C(COC(=O)CNC(=O)c1ccc(Cl)cc1Cl)Nc1ccc(N2CCOCC2)cc1,"inconclusive: 20 µM [inhibitor, partial curve, poor fit]",

SMILES,Potency,"activity, negative = inhibition"
CC(CCc1ccccc1)NC(=O)c1ccc(NC(=O)c2ccccc2)cc1 (centres undefined),,inactive: 2.78%
Cc1cccc2c1c1ccc3c(c1n2C)C(=O)C=CC3=O,active: 3.55 µM,
CC1CCCCN1C(=O)CNCC1CCCO1 (centres undefined),,inactive: -2.94%
Cc1cc(O)c(C(c2ccccc2)N2CCCCC2)c(=O)n1Cc1ccco1 (centres undefined),"inconclusive: 39.8 µM [inhibitor, single point]",
Cc1nnc(NC(=O)CSc2cn(Cc3ccccc3)c3ccccc23)s1,,inactive: -13.1%
COc1ccccc1NC(=O)Cn1c(O)c(N=NC(=O)c2ccccc2O)c2ccccc21,"inconclusive: 7.94 µM [inhibitor, partial curve]",
Nc1cnc(Br)cc1Br,,inactive: 1.8%
CCOC(=O)c1c(/N=C/C2=C(O)CCCC2=O)sc2c1CCCC2,"inconclusive: 12.6 µM [inhibitor, partial curve]",
Cc1ccc(-c2nc(CCNC(=O)c3ccc(C)c(C)c3)cs2)cc1,"inconclusive: 15.8 µM [inhibitor, partial curve]",
O=C(N/N=C/c1ccc(Br)o1)c1cncc(Br)c1,"inconclusive: 22.4 µM [inhibitor, partial curve, poor fit]",
Cc1ccc(N=Cc2c(C)[nH]n(-c3nc4ccccc4[nH]3)c2=O)cc1,"inconclusive: 25.1 µM [inhibitor, single point]",
CCC(C(=O)Nc1cccc(Cl)c1C)n1nc(C)c2sc3ccccc3c2c1=O (centres undefined),"inconclusive: 0.562 µM [inhibitor, full curve, poor fit]",
CC(C)c1nc(N2CCCC2)c(C#N)c2c1CCCC2,,inactive: -19.1%
COc1ccc(/C=N/Nc2cc(C)nc(-n3nc(C)cc3C)n2)cc1,"inconclusive: 7.94 µM [inhibitor, partial curve]",
C=CCc1cc(C=O)cc(OC)c1OCc1ccc(Cl)cc1,"inconclusive: 31.6 µM [inhibitor, single point]",
CCOc1ccc(C(=O)c2cn(CC(=O)Nc3ccc(Cl)cc3)c3cc4c(cc3c2=O)OCO4)cc1,"inconclusive: 7.94 µM [activator, full curve]",
COc1ccc(-c2nnc(SCC(=O)Nc3cccc(C(F)(F)F)c3)s2)cc1,"inconclusive: 15.8 µM [inhibitor, partial curve]",
CCOc1cc(/C=N/N=C2/NC(=O)C(CC(=O)O)S2)ccc1OS(=O)(=O)c1ccc(C)cc1 (centres undefined),"inconclusive: 1.58 µM [inhibitor, partial curve]",
Cc1c(C(=O)N(Cc2ccccc2F)C2CCS(=O)(=O)C2)oc2ccccc12 (centres undefined),,inactive: -11.7%
COc1ccc(-c2noc(CN(C(=O)c3ccc(OC(C)=O)cc3)C(C)C)n2)cc1OC,"inconclusive: 39.8 µM [inhibitor, single point]",
C/C(=N\Nc1ccccc1)c1cc2ccccc2oc1=O,active: 11.2 µM,
CCO/C=C/C(O)(CNC(=O)c1ccc(C(C)(C)C)cc1)C(F)(F)F (centres undefined),,inactive: 6.53%
S=C(c1ccc(Br)cc1)N1CCN(Cc2ccccc2)CC1,,inactive: -5.79%

SMILES,Potency,"activity, negative = inhibition"
Cc1ccc2nc(/C(C#N)=C\c3ccc(OC(=O)c4cccs4)cc3)[nH]c2c1,"inconclusive: 10 µM [inhibitor, partial curve]",
COc1cc(C(=O)Nc2ccc(NC(=O)c3ccco3)nc2)cc(OC)c1OC,"inconclusive: 15.8 µM [inhibitor, partial curve]",
COc1ccc(NC(=O)c2c(NCc3cccs3)sc3c2CCC(C)C3)c(OC)c1 (centres undefined),"inconclusive: 15.8 µM [inhibitor, partial curve]",
Cc1ccccc1/C=C/c1nc2ccccc2c(=O)[nH]1,"inconclusive: 6.31 µM [inhibitor, partial curve, poor fit]",
CC1(C2CC2)NC(=O)N(CC(=O)Nc2ccccc2-c2ccccc2)C1=O (centres undefined),,inactive: -2.71%
CCc1ccc(NC(=O)Cn2c(=O)n(-c3ccc(Cl)c(Cl)c3)c(=O)c3c(C)c(C)sc32)cc1,,inactive: 11.4%
COc1ccc(Cl)c2sc(NC(=O)c3ccc(S(=O)(=O)N4CCOCC4)cc3)nc12,,inactive: 20.9%
Cc1ccc(NS(=O)(=O)c2cc([N+](=O)[O-])ccc2NNC(=S)Nc2cc(C)ccc2C)c(C)c1,"inconclusive: 25.1 µM [inhibitor, partial curve]",
Cc1c(-c2nc(-c3ccccc3)no2)nnn1-c1ccc(F)c(Cl)c1,"inconclusive: 25.1 µM [inhibitor, single point]",
CCN1CCc2c(sc(N)c2C#N)C1,"inconclusive: 31.6 µM [inhibitor, partial curve]",
COc1cc(C)cc(C(=O)O)c1C1=C(O)c2cccc(O)c2C(=O)C1=O,"inconclusive: 39.8 µM [inhibitor, single point]",
Cc1ccc(Cn2c(SCc3ccc(C(=O)NC4CCCCC4)cc3)nc3ccncc32)cc1,"inconclusive: 39.8 µM [inhibitor, single point]",
CCOc1ccc(N(CC)C(=O)COc2cc(=O)n(C)c3ccccc23)cc1,"inconclusive: 25.1 µM [inhibitor, single point]",
CN(C(=O)c1ccc2c(c1)N(Cc1cccc(Cl)c1)C(=O)c1ccccc1S2(=O)=O)C1CCCCC1,,inactive: -2.55%
COc1ccc(CCNC2=C(Cl)C(=O)N(CCc3ccccc3)C2=O)cc1OC,"inconclusive: 2.82 µM [inhibitor, partial curve]",
COC(=O)C(CC(C)C)NC(=O)/C=C/c1ccc(Cl)cc1 (centres undefined),,inactive: -2.71%
NC(=O)CN1C(=O)C(O)(CC(=O)/C=C\c2ccc3c(c2)OCO3)c2ccccc21 (centres undefined),"inconclusive: 17.8 µM [inhibitor, partial curve]",
CC(C)c1cc(C(=O)N/N=C/C=C/c2ccccc2)n[nH]1,"inconclusive: 1.26 µM [inhibitor, full curve]",
CCC/C=C(\CCC)C(NC(=O)Oc1ccc(F)cc1)c1ccc(C(=O)OC)cc1 (centres undefined),,inactive: -10.5%
COc1ccccc1NC1=Nc2cccc3cccc1c23,"inconclusive: 17.8 µM [inhibitor, partial curve]",
COc1ccc(NC(=O)COCc2cc(-c3ccc4c(c3)OCO4)on2)cc1,"inconclusive: 0.398 µM [inhibitor, full curve]",
Cc1nn(C)cc1/C=C/C(=O)c1cccs1,"inconclusive: 31.6 µM [inhibitor, single point]",
O=C(Nc1nccs1)C1CC(=O)N(Cc2ccco2)C1 (centres undefined),"inconclusive: 25.1 µM [inhibitor, partial curve]",
